The values below come from the supplement of paper PMC11417369.

± gives the standard deviation of the averaged measurements. The list shows a part of the results.

The subject of this test is PfAP2-I AP2 domain 3 (GST-tagged). The test can be described thus: gcPBM binding intensity (ln(normalized median fluorescence intensity)); higher = stronger DNA binding. The gist of the method: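 Probes on an Agilent 4 × 180k array were primer-extended, double-stranded and 36 bp long, taken from intergenic genomic regions, with negative controls added. GST-tagged P. falciparum DNA-binding domains from E. coli, about 25 μg on average, were applied to the array for 1 h in 1× PBS containing 1% milk, 0.2 mg/ml BSA, 0.5% salmon testes DNA and 0.03% Triton X-100. Binding intensity, obtained after Alexa488 anti-GST antibody detection and a 488 nm scan, is the highest Masliner-normalised natural-log median intensity across replicate spots of either probe orientation.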
On to “ATATATTTAAACTACACACGCATATCTTAGAAATAA [CACACA_site1272]”, for which the “gcPBM binding intensity (ln)” value was 7.77 ± 0.54.

Regarding “TGTATATATAAACATGCACACGTGGTTGTATATATA [CACACA_site9078]”, the “gcPBM binding intensity (ln)” value came to 9.25 ± 0.52.

With “AATATTTTAAAAAAAAGTACATTATATATATATGTT [XGTACX_site8073]”, the “gcPBM binding intensity (ln)” value is 7.905 ± 0.049.

In the case of “TAGTATTAAAATATTTGTACTTATATGTATTATATA [XGTACX_site538]”, the “gcPBM binding intensity (ln)” value is 7.47 ± 0.25.

Take “TGTAGTCTGGAGAAGAGTACACAGTATCTGGTAACA [XGTACX_site2038]”: the “gcPBM binding intensity (ln)” value was determined as 7.55 ± 0.52.

Turning to “AGAATTCGTTTAAAAAGTACATTCAATTTAATAATG [XGTACX_site6603]”, the “gcPBM binding intensity (ln)” value stood at 7.61 ± 0.32.

As to “AATAAAAAGGAACACACACACACACGGATATAAATA [CACACA_site7658]”, the “gcPBM binding intensity (ln)” value came to 8.05 ± 0.51.

In the case of “TATTTTACATCTTCTCACATTTTATCACTTTTTAAA [CACACA_negctrl_site330]”, the “gcPBM binding intensity (ln)” value was found to be 8.08 ± 0.45.

For “TCATAGTATAGACACACACACACACGCATATAAATA [CACACA_site6915]”, the “gcPBM binding intensity (ln)” value is 8.01 ± 0.51.

On to “TCTTTGTAAATTTCTTGTACGTAAATTTTTTTTAGG [XGTACX_site7062]”, for which the “gcPBM binding intensity (ln)” value came out at 8.2 ± 0.33.

As to “AAAAAAAATGATAATATACACACTTATGGGAGAGCG [CACACA_site2516]”, the “gcPBM binding intensity (ln)” value worked out at 7.59 ± 0.5.

On to “AGAAATAAGAAATATACACACATATAAATATAAATA [CACACA_site7342]”, for which the “gcPBM binding intensity (ln)” value amounted to 7.49 ± 0.67.

Consider “AGAATATGTTAAAAAAGTACATACTCTTTATATACG [XGTACX_site79]”, for which the “gcPBM binding intensity (ln)” value came to 7.65 ± 0.45.

Consider “TAAAAAAAAACATATACACACAAAAACGTACACATA [CACACA_site1354]”, for which the “gcPBM binding intensity (ln)” value amounted to 7.98 ± 0.38.

In the case of “TTTTTTTCTCACAATCGTACATAAATACATATATAT [XGTACX_site3150]”, the “gcPBM binding intensity (ln)” value is 8.12 ± 0.54.

On to “TATATTTTTTAAACCACACACAATATAGAGTAGAAT [CACACA_site613]”, for which the “gcPBM binding intensity (ln)” value is 8.03 ± 0.57.

For the sequence “TAATGTACATAAACCGCACACATATAAAAAAATAAA [CACACA_site2851]”, the “gcPBM binding intensity (ln)” value came to 8.28 ± 0.092.

“AGGGGAAATAAAATATAAATTATCATATATATATAT [XGTACX_negctrl_site366]”: the “gcPBM binding intensity (ln)” value was determined as 9.25 ± 0.31.

Turning to “CGTATATGACAAAAGCGTACGCATCAGCAGAAAAAT [XGTACX_site6248]”, the “gcPBM binding intensity (ln)” value was 8.3 ± 0.75.

Take “ATATATATATATATATGTACTGAATAAAGAACAAAA [XGTACX_site5400]”: the “gcPBM binding intensity (ln)” value came to 9.37 ± 0.4.

In the case of “ATAAGGAAGGGATGCACACAAAAGGGTACATAAGAA [CACACA_site4006]”, the “gcPBM binding intensity (ln)” value amounted to 8.36 ± 0.52.

Consider “TTTGAATCCTTATATACACACATTATAAAATATTAT [CACACA_site6406]”, for which the “gcPBM binding intensity (ln)” value is 7.93 ± 0.39.

In the case of “TATTTGTAAATCGATACACACATATAGATTAATATA [CACACA_site6237]”, the “gcPBM binding intensity (ln)” value is 7.44 ± 0.35.

As for “TTATATTATACATACACACCCATATAATATGTTTTT [CACACA_site4636]”, the “gcPBM binding intensity (ln)” value was 8.01 ± 0.59.

Turning to “AGCTACACACCACAATGTACATAAATATATATGTGA [XGTACX_site1483]”, the “gcPBM binding intensity (ln)” value stood at 8.11 ± 0.39.

With “TCTTATGAATATCCCCGTACACATATATTTCTTATA [XGTACX_site6877]”, the “gcPBM binding intensity (ln)” value amounted to 8.24 ± 0.54.

Consider “TTGTTTTTGTTCTTGGGTACTTAAATTATAAATGAT [XGTACX_site113]”, for which the “gcPBM binding intensity (ln)” value was determined as 8.07 ± 0.45.

As to “TATTGTATATACTATACACACACATACATACATACA [CACACA_site8172]”, the “gcPBM binding intensity (ln)” value came to 8.89 ± 0.59.

Regarding “AGAATATTTAATTCAACACACATACATATTTATTAA [CACACA_site5318]”, the “gcPBM binding intensity (ln)” value came out at 7.5 ± 0.45.

As for “GGATAATATATTAGAACACACATATAGATGTAAAAA [CACACA_site6229]”, the “gcPBM binding intensity (ln)” value was 7.76 ± 0.73.

As for “TACTTTATATAAAGATCAAAAAATAAATAATTATAA [TGCATGCA_negctrl_site446]”, the “gcPBM binding intensity (ln)” value was found to be 7.42 ± 0.67.

Consider “GAAGCCCTATGAAAAGTGCGGTTCATGAACAAAGAA [GTGCAC_site9828]”, for which the “gcPBM binding intensity (ln)” value was 9.21 ± 1.

On to “CAAATATACATATGTAGTACATGTTGTAGATAATTT [XGTACX_site2790]”, for which the “gcPBM binding intensity (ln)” value was found to be 8.01 ± 0.5.

Take “ATATATTTATATAAATGTACATACAGCACATTTATA [XGTACX_site4725]”: the “gcPBM binding intensity (ln)” value turned out to be 8.28 ± 0.085.

On to “TATATATCATATGATACATGCAACAAAATGCATAAT [TGCATGCA_site205]”, for which the “gcPBM binding intensity (ln)” value was 8.17 ± 0.83.

On to “TACTTACCAAAATACACACACACACTAGATATATAA [CACACA_site5096]”, for which the “gcPBM binding intensity (ln)” value turned out to be 7.92 ± 0.39.

In the case of “ATGTATATTACTCATTGTACTTATATTTTCTTATTA [XGTACX_site8897]”, the “gcPBM binding intensity (ln)” value is 7.87 ± 0.56.

Take “GTATTTATAAATTATAGTACTTTGCGTATCATATAT [XGTACX_site7358]”: the “gcPBM binding intensity (ln)” value amounted to 7.9 ± 0.3.

Consider “ATTTTATATCTGGATAGTACTTTAATATTTCAAATG [XGTACX_site7304]”, for which the “gcPBM binding intensity (ln)” value is 7.86 ± 0.36.

On to “GGATATTCATTAACCACACACACAAAAAAAATAAAA [CACACA_site3800]”, for which the “gcPBM binding intensity (ln)” value was 7.96 ± 0.3.

Consider “ATGGATTATACGTGCACACATATATACAAATAAATA [CACACA_site640]”, for which the “gcPBM binding intensity (ln)” value amounted to 11.19 ± 0.035.

Take “ACCATTTGTAGGTAAACACACATTATTATTAATATC [CACACA_site2635]”: the “gcPBM binding intensity (ln)” value came out at 7.83 ± 0.52.

Consider “TAAAATGCAATCTGAACACACATATTTTTTTAATAT [CACACA_site6922]”, for which the “gcPBM binding intensity (ln)” value was determined as 7.39 ± 0.54.

In the case of TACATCATACGAACAGTGCATATTATTATTGTTCTG, the “gcPBM binding intensity (ln)” value turned out to be 9.12 ± 0.057.

As to “AAAAATAATTATTCGTGTACAAAAAAAAAAATATAA [XGTACX_site439]”, the “gcPBM binding intensity (ln)” value was determined as 7.88 ± 0.6.

For the sequence “ATGCAAATGTGCATCACACACACTAATGGGTATGTA [CACACA_site2893]”, the “gcPBM binding intensity (ln)” value is 8.55 ± 0.45.

As for “GGAATATATATACATACACACATATATATATATATA [CACACA_site1666]”, the “gcPBM binding intensity (ln)” value is 9.26 ± 0.43.

As for “ATTTTTTATGTTAATGCATGCTCATGTGTATTTCAT [TGCATGCA_site751]”, the “gcPBM binding intensity (ln)” value came to 8.16 ± 0.86.

As to “AAAGTAATAATGATTTGTACATATATATATATATAT [XGTACX_site8821]”, the “gcPBM binding intensity (ln)” value came out at 9.04 ± 0.63.

On to “AAATATAACATCATCACACACATATACTTTATATGC [CACACA_site1126]”, for which the “gcPBM binding intensity (ln)” value was determined as 7.58 ± 0.59.

For “AGCTTCATATTATGGAGTACTATTAAAAATAAATAA [XGTACX_site2649]”, the “gcPBM binding intensity (ln)” value worked out at 7.77 ± 0.28.

Turning to “AGATATTATAAAATATGTACATATATATATATATAT [XGTACX_site2088]”, the “gcPBM binding intensity (ln)” value was found to be 9.22 ± 0.71.

For the sequence “TAATTAGATTATTTTTGTACATATTATTATAGGTTA [XGTACX_site2077]”, the “gcPBM binding intensity (ln)” value stood at 7.59 ± 0.26.

Consider “TTATCTTTTTTCGTTTGTACGTAACCATATTACTAT [XGTACX_site8853]”, for which the “gcPBM binding intensity (ln)” value was 7.93 ± 0.68.

Turning to “TTTCTATTTATTAATACATGCAAAATAAAGTAAAGT [TGCATGCA_site209]”, the “gcPBM binding intensity (ln)” value stood at 8.07 ± 0.8.

As for “ATATATCAATATGGAATATATATATATATATATATA [TGCATGCA_negctrl_site502]”, the “gcPBM binding intensity (ln)” value came to 9.35 ± 0.67.

Take “TTTTGGTTTTGTTCTACACACATAAAAAAAAAAAAG [CACACA_site2276]”: the “gcPBM binding intensity (ln)” value amounted to 7.89 ± 0.4.
